# Experimental data published in the BET-seq Pho4 binding data (Le et al. 2018).
# Some of the results follow. Values were computed here from the reads of four pooled replicates and scatter widely.
# Molecular target: T1, Pho4 (S. cerevisiae) (UniProt P07270)
# T1 sequence: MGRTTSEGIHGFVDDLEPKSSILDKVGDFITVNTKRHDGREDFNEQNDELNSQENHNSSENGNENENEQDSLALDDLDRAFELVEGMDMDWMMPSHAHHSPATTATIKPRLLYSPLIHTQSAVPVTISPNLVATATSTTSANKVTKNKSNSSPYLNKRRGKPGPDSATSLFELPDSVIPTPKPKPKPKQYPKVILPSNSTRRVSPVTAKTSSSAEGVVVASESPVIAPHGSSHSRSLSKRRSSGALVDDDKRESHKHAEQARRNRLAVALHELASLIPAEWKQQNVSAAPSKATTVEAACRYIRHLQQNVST
# Test: relative binding free energy (BET-seq); higher = weaker binding
# Settings: reference: library average
row,Sequence,relative binding free energy
1,GTGGTCACGTGGCGAG,0.11 kcal/mol
2,ACGGCCACGTGGGTGT,-0.27 kcal/mol
3,AAGGTCACGTGGCGGT,0.11 kcal/mol
4,GATGGCACGTGCTTTA,0.06 kcal/mol
5,TGAATCACGTGTTATG,0.24 kcal/mol
6,TAACGCACGTGTTTTA,-0.03 kcal/mol
7,TGTATCACGTGAAGTT,0.32 kcal/mol
8,AGTCTCACGTGGGTGG,0.07 kcal/mol
9,TGTATCACGTGATTCT,0.08 kcal/mol
10,ATTGTCACGTGGCCGT,-0.06 kcal/mol
11,TTATCCACGTGAGTTA,0.14 kcal/mol
12,TCGTTCACGTGATATG,0.49 kcal/mol
13,TATAACACGTGTAGTA,0.05 kcal/mol
14,TTGGACACGTGAGGCA,0.12 kcal/mol
15,TTGTGCACGTGTCGCT,-0.07 kcal/mol
16,GTACGCACGTGGTGTG,-0.12 kcal/mol
17,CTTAACACGTGGGTTG,-0.13 kcal/mol
18,GGGGCCACGTGCTGTT,-0.23 kcal/mol
19,GGTGTCACGTGGTCCA,0.16 kcal/mol
20,TAGGTCACGTGTGATG,0.21 kcal/mol
21,AGAATCACGTGGGACT,0.16 kcal/mol
22,GAGCGCACGTGTGGAG,0.06 kcal/mol
23,TCTGGCACGTGAAGGT,0.02 kcal/mol
24,CTTGGCACGTGTTTGT,-0.09 kcal/mol
25,TTGAGCACGTGTGTCT,0 kcal/mol

row,Sequence,relative binding free energy
1,GGGAGCACGTGATGGG,0.05 kcal/mol
2,TTTATCACGTGCAGTT,0.03 kcal/mol
3,TGGGACACGTGTTCTG,-0.04 kcal/mol
4,TTGAGCACGTGATGAT,0.09 kcal/mol
5,CTTGACACGTGTTGTT,-0.08 kcal/mol
6,AGAGACACGTGTTGCG,0.11 kcal/mol
7,AGGTGCACGTGAAAAT,0.35 kcal/mol
8,GGTATCACGTGTTGCA,0.02 kcal/mol
9,AGTTTCACGTGATATT,0.14 kcal/mol
10,TATAACACGTGTGTGT,0.09 kcal/mol
11,CTATTCACGTGGCGTT,0.17 kcal/mol
12,CTATTCACGTGTGATT,0.27 kcal/mol
13,CGGGTCACGTGTATTA,0.12 kcal/mol
14,AAAATCACGTGTTGGA,0.14 kcal/mol
15,AGGGACACGTGTAGGA,0.05 kcal/mol
16,TGCGTCACGTGGCAGG,-0.2 kcal/mol
17,GGGCCCACGTGGGCGG,-0.28 kcal/mol
18,TGCAACACGTGGTAGG,-0.01 kcal/mol
19,CCGGGCACGTGTTGTA,-0.06 kcal/mol
20,ATGGCCACGTGTTCGG,-0.09 kcal/mol
21,ATTTGCACGTGGCGCG,-0.21 kcal/mol
22,GAGGTCACGTGTGCTT,0.27 kcal/mol
23,AGAGGCACGTGTAATA,-0.08 kcal/mol
24,TGATGCACGTGTTTGG,-0.11 kcal/mol
25,GGCATCACGTGGGCGT,0.05 kcal/mol

row,Sequence,relative binding free energy
1,GCCGTCACGTGGATGG,0.13 kcal/mol
2,TGGCGCACGTGTGGCA,-0.01 kcal/mol
3,GGGTTCACGTGGTGAT,0.46 kcal/mol
4,TATATCACGTGGTAGC,0.09 kcal/mol
5,GTGTGCACGTGGGACA,-0.15 kcal/mol
6,TTCTGCACGTGGCGTG,-0.2 kcal/mol
7,TCGGTCACGTGTAATG,0.18 kcal/mol
8,AGCTGCACGTGGGTAG,-0.22 kcal/mol
9,CGGTTCACGTGGGAAG,0.18 kcal/mol
10,TGGGGCACGTGGTAGG,-0.16 kcal/mol
11,ATGGCCACGTGTGGTG,-0.07 kcal/mol
12,TATAACACGTGGCAGG,0.04 kcal/mol
13,AGTTCCACGTGTAGAT,0.34 kcal/mol
14,AGTTTCACGTGTGTGT,0.34 kcal/mol
15,TGTTGCACGTGATGGG,0.11 kcal/mol
16,CGGATCACGTGCGGGA,0.18 kcal/mol
17,AGGGTCACGTGGGGGG,0.03 kcal/mol
18,ATTTCCACGTGTTTGA,0.09 kcal/mol
19,TTTCGCACGTGGGGGG,-0.09 kcal/mol
20,AGCGGCACGTGATGAG,-0.1 kcal/mol
21,AATGTCACGTGGCGTT,0.04 kcal/mol
22,AATTTCACGTGAGTAG,0.36 kcal/mol
23,AGGTTCACGTGTCTTG,0.25 kcal/mol
24,GGTAGCACGTGTATGC,-0.07 kcal/mol
25,GTTGTCACGTGGGTTG,0.06 kcal/mol

row,Sequence,relative binding free energy
1,CTTATCACGTGGTAGT,-0.01 kcal/mol
2,TTTTGCACGTGATTTT,0.06 kcal/mol
3,TAGTACACGTGGTCGG,-0.01 kcal/mol
4,CAGCACACGTGGGTGG,-0.04 kcal/mol
5,TTTTGCACGTGGTACA,-0.11 kcal/mol
6,GTTGGCACGTGCGATC,0.14 kcal/mol
7,GGAACCACGTGTGTGG,-0.04 kcal/mol
8,ACGTACACGTGCGGGT,0.02 kcal/mol
9,CGAGGCACGTGAAGGG,0.11 kcal/mol
10,ATCTACACGTGTGGGG,0.11 kcal/mol
11,TTGGTCACGTGGCCTT,0.02 kcal/mol
12,TGGGGCACGTGTGAAA,0.12 kcal/mol
13,GGGAGCACGTGGGCCA,-0.07 kcal/mol
14,TCCTGCACGTGGAGGG,0 kcal/mol
15,TGTGGCACGTGGGTAC,-0.16 kcal/mol
16,AGTAGCACGTGGCATT,-0.14 kcal/mol
17,GGCGGCACGTGAGGGG,0.19 kcal/mol
18,TTAATCACGTGTAGGG,0.13 kcal/mol
19,CGATGCACGTGGTTGA,-0.14 kcal/mol
20,TGCTGCACGTGTGTTA,0.07 kcal/mol
21,AGGTGCACGTGGATTA,0.03 kcal/mol
22,AGGGTCACGTGTGTAA,0.06 kcal/mol
23,TTTCACACGTGAGGGT,0.21 kcal/mol
24,CTGGTCACGTGGGAAT,0.1 kcal/mol
25,GGTTTCACGTGTTTCT,0.34 kcal/mol

row,Sequence,relative binding free energy
1,CGTGGCACGTGGTCTT,-0.19 kcal/mol
2,GTTGTCACGTGTTTAC,0.12 kcal/mol
3,GTTTTCACGTGCTGCG,0.23 kcal/mol
4,GCTTGCACGTGAGGAG,0.36 kcal/mol
5,GAAGGCACGTGTCGTT,-0.09 kcal/mol
6,TCATGCACGTGGAGGG,-0.09 kcal/mol
7,GAGCGCACGTGTGGAT,-0.11 kcal/mol
8,TTGATCACGTGATCGT,0.24 kcal/mol
9,GATGTCACGTGTTTAG,0.22 kcal/mol
10,ATGTTCACGTGGGTCG,0.21 kcal/mol
11,TGAATCACGTGATGTA,0.2 kcal/mol
12,TGTTTCACGTGGAGTC,0.25 kcal/mol
13,GGGGGCACGTGGGCTT,-0.13 kcal/mol
14,GTTTGCACGTGTGCGA,0 kcal/mol
15,TGGGGCACGTGCATAA,-0.23 kcal/mol
16,CTTGTCACGTGGTGAA,0 kcal/mol
17,ACGGGCACGTGTTTAG,-0.13 kcal/mol
18,TTTAACACGTGGTTAT,-0.02 kcal/mol
19,GTGGCCACGTGAATGT,0.36 kcal/mol
20,AAGTTCACGTGTGGGG,0.34 kcal/mol
21,GCGGGCACGTGGGGAT,-0.06 kcal/mol
22,GGGGGCACGTGATATG,-0.08 kcal/mol
23,GGTTACACGTGCAGCG,0.3 kcal/mol
24,GCTTGCACGTGGAATG,0.06 kcal/mol
25,TGAGGCACGTGCGGCT,-0.2 kcal/mol

row,Sequence,relative binding free energy
1,TCCGTCACGTGTGGAG,0.18 kcal/mol
2,GTGAGCACGTGAGAGG,0.06 kcal/mol
3,TCTAACACGTGTTGTG,-0.05 kcal/mol
4,GGCTGCACGTGAGGCT,0.26 kcal/mol
5,TTGCTCACGTGGTGGG,0.33 kcal/mol
6,AGGGACACGTGTTAAT,0.08 kcal/mol
7,TTAGTCACGTGTTACG,0.01 kcal/mol
8,TAAGGCACGTGAGGAG,0.07 kcal/mol
9,GTTGGCACGTGTATAT,0.03 kcal/mol
10,AGTCGCACGTGGGGCA,-0.3 kcal/mol
11,AGGGCCACGTGGTTGG,-0.06 kcal/mol
12,AGGTTCACGTGGTACG,0.13 kcal/mol
13,CTTGGCACGTGGCGAT,-0.2 kcal/mol
14,GTGGCCACGTGAGTAG,0.21 kcal/mol
15,TTGGTCACGTGATATG,0.23 kcal/mol
16,TCTCGCACGTGGTGGT,-0.26 kcal/mol
17,GGTAACACGTGGGGAC,-0.15 kcal/mol
18,GGTATCACGTGGCTCG,0.21 kcal/mol
19,AATGACACGTGGAATT,0.09 kcal/mol
20,TATGTCACGTGGAGTG,-0.04 kcal/mol
21,TAGCGCACGTGGAGTC,0.12 kcal/mol
